# Test results: PubChem BioAssay AID624296 (National Center for Advancing Translational Sciences (NCATS), 2012)
# About 9,900 (2.8%) of roughly 350,000 compounds were called active. The shares of active, inactive and inconclusive entries below differ from those in the screen. Calls come from the whole dose curve; as a rule, active = well fitted activation curve with a large enough effect; inconclusive = small, poorly fitted or top-dose-only effect; inactive = no such curve, though single readings can be large or run the other way. Potencies of inconclusive entries are left out as doubtful fits.
# Assay: A quantitative high throughput screen for small molecules that induce DNA re-replication in MCF 10a normal breast cells. Note: nearly all actives have a fitted effect of over 50% in size.
# Conditions: MCF 10A DNA re-replication, Hoechst nuclear intensity, 48 h; series mostly up to 46.1 µM
# Potency is the fitted concentration of half-maximal effect; tags give direction and shape of the fitted curve.
row,Compound,Potency
1,O=c1c2ccccc2ncn1-c1ccc(Cl)c(Cl)c1,"inconclusive [activator, single point]"
2,COc1ccc(C(C)(C)C)cc1NC(=O)c1[nH]c(C)c(C(C)=O)c1C,active: 18.4 µM
3,COc1ccc(N2CCN(C(=O)c3cc4c(s3)-c3ccccc3S(=O)(=O)C4)CC2)cc1,"inconclusive [activator, partial curve, poor fit]"
4,Cc1cc(C)cc(C(=O)OCC(=O)NCc2ccco2)c1,inactive
5,CC(=O)Nc1ccc(CCNC(=O)c2ccc3ccccc3c2O)cc1,"inconclusive [activator, full curve, poor fit]"
6,CC(=O)OCCNc1cc(SCc2ccco2)c2nonc2c1[N+](=O)[O-],inactive
7,CC1(C)Oc2ccc3ccc(=O)oc3c2[C@@H](O)[C@H]1O,inactive
8,COc1ccc2nc(C)cc(SCC(=O)N/N=C/c3ccc(O)cc3O)c2c1,active: 6.51 µM
9,COc1cc(OC)cc(-c2nnc(SCC(=O)N3CCCc4ccccc43)o2)c1,"inconclusive [activator, partial curve, poor fit]"
10,O=C(C[n+]1cc(-c2ccc(Cl)cc2)n2c1CCCCC2)c1ccccc1,"inconclusive [activator, full curve, poor fit]"
11,O=S(=O)(c1ccc(Cl)cc1)N1CCN=C1SCc1cccnc1,inactive
12,O=c1c2cn[nH]c2nc(SCc2ccccc2F)n1-c1ccc(Br)cc1,active: 18.4 µM
13,COc1ccc2c(c1)C(SCC(=O)NCCc1ccc(Cl)cc1)CC(C)(C)O2 (configuration not stated),"inconclusive [activator, partial curve, poor fit]"
14,O=C(NCCCNC(=O)c1ccccc1)c1ccccc1,"inconclusive [activator, partial curve, poor fit]"
15,CNC(=O)c1c(O)c2cccc3c2n(c1=O)CCC3,"inconclusive [activator, single point]"
16,CN1CCN(c2ccc(S(=O)(=O)N3CCCCC3)cc2NC(=O)/C=C/c2ccc(OC(F)F)cc2)CC1,"inconclusive [activator, partial curve, poor fit]"
17,Cc1cc(Oc2ccc(C(C)(C)C)cc2)nc(N2CCOCC2)n1,"inconclusive [activator, single point]"
18,C=CCOc1ccccc1CN1CCC(n2nccc2NC(=O)C2CC2)CC1,inactive
19,CC(OC(=O)c1oc2ccccc2c1CSC1CCCCC1)C(=O)NC(N)=O (configuration not stated),"inconclusive [activator, single point]"
20,Cc1ccc(S(=O)(=O)Cc2ccc(C(=O)N3CCCCC3C)cc2)cc1 (configuration not stated),"inconclusive [activator, single point]"
21,CC1(c2ccccc2)NC(=O)N(CC(=O)N2CCN(S(=O)(=O)c3ccccc3[N+](=O)[O-])CC2)C1=O (configuration not stated),inactive

row,Compound,Potency
1,O=C(NCc1cccnc1)c1cc2nc(-c3ccc4c(c3)OCO4)cc(C(F)(F)F)n2n1,inactive
2,CC(Sc1nnc(Cc2cccs2)n1C1CCCCC1)C(=O)N1CCc2ccccc21 (configuration not stated),"inconclusive [activator, partial curve, poor fit]"
3,COC(=O)C1=C(C(=O)OC)[C@@H]2N(C)c3ccccc3[C@@]23C[C@@H](C(=O)OC)N(C(=O)c2cccs2)C3=N1,"inconclusive [activator, single point]"
4,N#Cc1nc(-c2cccc3ccccc23)oc1N,"inconclusive [activator, single point]"
5,O=C(O)CNC(=O)c1ccc2c(c1)OCCO2,inactive
6,CCCN1CCC(NCc2cn(C)nc2-c2ccc(Oc3ccccc3)cc2)CC1,"inconclusive [activator, single point]"
7,COc1cccc(N2CCN(C(=S)Nc3cc(C)cc(C)c3)CC2)c1,active: 11.2 µM
8,COc1ccc(/C=N/NC(=O)COc2ccc(Cl)cc2Cl)cc1Cn1nc(C)cc1C,"inconclusive [activator, partial curve]"
9,COC(=O)Cn1c(=NC(=O)c2ccc(S(=O)(=O)N3CCc4ccccc4C3)cc2)sc2cc(OC)ccc21,"inconclusive [activator, partial curve, poor fit]"
10,O=C(c1ccc2c(c1)CCN2S(=O)(=O)c1ccccc1)N1CCN(c2ccc(F)cc2)CC1,inactive
11,COc1ccc(S(=O)(=O)N2CCC(C(=O)Nc3ccc(S(=O)(=O)N4CCCC4)cc3)CC2)cc1OC,inactive
12,O=[N+]([O-])c1ccc(OCC(O)CN(CCO)CCO)cc1 (configuration not stated),"inconclusive [activator, single point]"
13,O=C(NCC(c1cccs1)N1CCOCC1)c1ccccc1NS(=O)(=O)c1ccc(Cl)cc1 (configuration not stated),"inconclusive [activator, partial curve, poor fit]"
14,COC(=O)c1c(NC(=O)c2ccc(C)o2)sc2c1CCCCC2,"inconclusive [activator, single point]"
15,CC(C)(C)c1ccc(OCc2nc(-c3ccccn3)no2)c(Br)c1,"inconclusive [activator, partial curve, poor fit]"
16,Cc1cccc(-n2ncc(C#N)c2N)c1,inactive
17,CC(C)(C)OC(=O)C[C@@H]1C/C=C\C[C@@H](CC(=O)N(CCO)Cc2ccccc2)C(=O)N[C@H](Cc2c[nH]c3ccccc23)COC1=O,"inconclusive [activator, partial curve, poor fit]"
18,COc1ccccc1NS(=O)(=O)c1ccc(NN=C2CCCCC2)c([N+](=O)[O-])c1,inactive
19,O=C(O)c1[nH]c2ccccc2c1NS(=O)(=O)c1ccc(F)cc1,"inconclusive [activator, single point]"
20,CC1=C(C(=O)Nc2cccc(C)n2)C(c2ccc3c(c2)OCO3)C2=C(CC(c3ccco3)CC2=O)N1 (configuration not stated),"inconclusive [activator, single point]"
21,CC(C)Nc1nc(-c2ccccn2)nc(-c2ccccc2)c1C#N,inactive
